Source: publication PMC9911399, “Two distinct binding modes provide the RNA-binding protein RbFox with extraordinary sequence specificity”
Numbering of substitutions follows the chain as printed; changes in the protein carry UniProt numbers. The list shows a part of the results.

T1: RBFOX1 RRM (Homo sapiens, UniProt Q9NWB1 109-208)
T1 sequence: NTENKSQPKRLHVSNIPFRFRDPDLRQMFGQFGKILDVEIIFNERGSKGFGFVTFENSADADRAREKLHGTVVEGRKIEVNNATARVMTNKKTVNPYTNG

B1: AUCGUUG (DNA:RNA)
RNA: GGGAGACCGGAAUUCAGAUUGUCCAUCGUUGUUAAAUCCCGUCGUAGCCACCA
DNA 1: CAATCTGAATTCCGGTCTCCC
DNA 2: TGGTGGCTACGACGGGATT
B2: AUUAUAC (DNA:RNA)
RNA: B1 RNA with C27U, G28A, U30A, G31C
DNA 1: CAATCTGAATTCCGGTCTCCC
DNA 2: TGGTGGCTACGACGGGATT
B3: CUAUUCG (DNA:RNA)
RNA: B1 RNA with A25C, C27A, G28U, U30C
DNA 1: CAATCTGAATTCCGGTCTCCC
DNA 2: TGGTGGCTACGACGGGATT
B4: CAAUAGG (DNA:RNA)
RNA: B1 RNA with A25C, U26A, C27A, G28U, U29A, U30G
DNA 1: CAATCTGAATTCCGGTCTCCC
DNA 2: TGGTGGCTACGACGGGATT
B5: ACCCCGG (DNA:RNA)
RNA: B1 RNA with U26C, G28C, U29C, U30G
DNA 1: CAATCTGAATTCCGGTCTCCC
DNA 2: TGGTGGCTACGACGGGATT
B6: UAGUGAU (DNA:RNA)
RNA: GGGAGACCGGAAUUCAGAUUGUCCUAGUGAUUUAAAUCCCGUCGUAGCCACCA
DNA 1: CAATCTGAATTCCGGTCTCCC
DNA 2: TGGTGGCTACGACGGGATT
B7: GUAGAGA (DNA:RNA)
RNA: B1 RNA with A25G, C27A, U29A, U30G, G31A
DNA 1: CAATCTGAATTCCGGTCTCCC
DNA 2: TGGTGGCTACGACGGGATT
B8: UGUAAAG (DNA:RNA)
RNA: B6 RNA with A26G, G27U, U28A, G29A, U31G
DNA 1: CAATCTGAATTCCGGTCTCCC
DNA 2: TGGTGGCTACGACGGGATT
B9: AAGGGAA (DNA:RNA)
RNA: B6 RNA with U25A, U28G, U31A
DNA 1: CAATCTGAATTCCGGTCTCCC
DNA 2: TGGTGGCTACGACGGGATT
B10: ACCACCU (DNA:RNA)
RNA: B1 RNA with U26C, G28A, U29C, U30C, G31U
DNA 1: CAATCTGAATTCCGGTCTCCC
DNA 2: TGGTGGCTACGACGGGATT
B11: CGCCAAA (DNA:RNA)
RNA: B1 RNA with A25C, U26G, G28C, U29A, U30A, G31A
DNA 1: CAATCTGAATTCCGGTCTCCC
DNA 2: TGGTGGCTACGACGGGATT
B12: GAGCCAC (DNA:RNA)
RNA: B6 RNA with U25G, U28C, G29C, U31C
DNA 1: CAATCTGAATTCCGGTCTCCC
DNA 2: TGGTGGCTACGACGGGATT
B13: UUGUCAC (DNA:RNA)
RNA: B6 RNA with A26U, G29C, U31C
DNA 1: CAATCTGAATTCCGGTCTCCC
DNA 2: TGGTGGCTACGACGGGATT
B14: UGUAAGC (DNA:RNA)
RNA: B6 RNA with A26G, G27U, U28A, G29A, A30G, U31C
DNA 1: CAATCTGAATTCCGGTCTCCC
DNA 2: TGGTGGCTACGACGGGATT
B15: CUAUCCU (DNA:RNA)
RNA: B6 RNA with U25C, A26U, G27A, G29C, A30C
DNA 1: CAATCTGAATTCCGGTCTCCC
DNA 2: TGGTGGCTACGACGGGATT
B16: AUGCCUG (DNA:RNA)
RNA: B1 RNA with C27G, G28C, U29C
DNA 1: CAATCTGAATTCCGGTCTCCC
DNA 2: TGGTGGCTACGACGGGATT
B17: UUCGCGU (DNA:RNA)
RNA: B1 RNA with A25U, U29C, U30G, G31U
DNA 1: CAATCTGAATTCCGGTCTCCC
DNA 2: TGGTGGCTACGACGGGATT
B18: CUGGGUA (DNA:RNA)
RNA: B1 RNA with A25C, C27G, U29G, G31A
DNA 1: CAATCTGAATTCCGGTCTCCC
DNA 2: TGGTGGCTACGACGGGATT
B19: CAUCCCG (DNA:RNA)
RNA: B1 RNA with A25C, U26A, C27U, G28C, U29C, U30C
DNA 1: CAATCTGAATTCCGGTCTCCC
DNA 2: TGGTGGCTACGACGGGATT
B20: UCUCCUA (DNA:RNA)
RNA: B1 RNA with A25U, U26C, C27U, G28C, U29C, G31A
DNA 1: CAATCTGAATTCCGGTCTCCC
DNA 2: TGGTGGCTACGACGGGATT

Biological target: T1, RBFOX1 RRM
Experiment: EMSA; HiTS-Eq, 1 nM pool, 10 min; buffer printed only for the single-RNA assays: 10 mM Tris pH 7.5, 150 mM NaCl, 3.4 mM EDTA, 0.001% NP-40, 30 C
Conditions: tags: His6 N-terminal (pET28a); label: 5' 32P
In short: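 Relative association constants, normalised to the cognate motif, were derived by comparing read counts of each RNA species with those of the control reaction. The RNA sequenced was the free fraction, separated by 8% native PAGE after a 10 min equilibration in 50 µL of 1 nM 5′-radiolabelled RNA (7 randomized nucleotides) with increasing concentrations of purified wild-type or mutant RbFox RRM.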

Binder | binding signal
B1 | 0.0115 KA relative to UGCAUGU
B2 | 0.002 KA relative to UGCAUGU
B3 | 0.0141 KA relative to UGCAUGU
B4 | 0.00848 KA relative to UGCAUGU
B5 | 0.0123 KA relative to UGCAUGU
B6 | 0.00564 KA relative to UGCAUGU
B7 | 0.00953 KA relative to UGCAUGU
B8 | 0.0168 KA relative to UGCAUGU
B9 | 0.00655 KA relative to UGCAUGU
B10 | 0.00175 KA relative to UGCAUGU
B11 | 0.00244 KA relative to UGCAUGU
B12 | 0.00453 KA relative to UGCAUGU
B13 | 0.0114 KA relative to UGCAUGU
B14 | 0.0152 KA relative to UGCAUGU
B15 | 0.00261 KA relative to UGCAUGU
B16 | 0.024 KA relative to UGCAUGU
B17 | 0.0167 KA relative to UGCAUGU
B18 | 0.0268 KA relative to UGCAUGU
B19 | 0.00362 KA relative to UGCAUGU
B20 | 0.00606 KA relative to UGCAUGU
